The results in this text go back to the supplement of paper PMC8183993.

Several values for one entry are separate records, joined by “and”; a condition that tells them apart may be missing. Identical values can stand only once. Counter-ions that a name gives are not always drawn. ± gives the standard deviation of the averaged measurements. In all, about 3,100 compounds were measured (“mean cytoplasmic OPP incorporation (global translation) relative to DMSO”: median about 100, lowest 2% from about 56 on). The list shows a part of the results.

The test deals with U2OS. Description: mean cytoplasmic OPP incorporation (global translation) relative to DMSO (% of DMSO); higher = more protein synthesis. The conditions noted are these: 10 µM; 24 h. As to the method:
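Primary image-based screen in U2OS cells: compounds at 10 uM for 24 h, then a 1 h o-propargyl-puromycin (OPP) pulse, click labelling, and high-throughput microscopy. Mean cytoplasmic OPP intensity and nuclei count were normalised to DMSO wells within each plate (DMSO = 100) and averaged over triplicate plates.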
As to `Nc1cccc2c1C(=O)N(C1CCC(=O)NC1=O)C2=O` (stereo not given) [Pomalidomide], the “mean cytoplasmic OPP incorporation” value turned out to be 102.

As to `Cc1ccc(CC2(O)CCN(CCOc3ccc(O)cc3)CC2)cc1`, the “mean cytoplasmic OPP incorporation” value came out at 108. Next, `N=C(N)NC(=O)Cc1c(Cl)cccc1Cl` [Guanfacine hydrochloride]: 105 ± 3.8; `O=C1Nc2ccccc2/C1=C1/Nc2ccccc2C1=O` [Indirubin]: 106. The same measure for `O=C(O)C(O)Cc1ccc(O)c(O)c1` (stereo not given) [Sodium Danshensu]: 92; for `C[n+]1cc2c3c(ccc2c2ccc4cc5c(cc4c21)OCO5)OCO3` [Sanguinarine chloride]: 42.4. The same measure for `Cc1cc(C)c(Nc2ccnc(Nc3ccc(C#N)cc3)n2)c(C)c1` [Dapivirine]: 121; for `Clc1ccc(CSC(Cn2ccnc2)c2ccc(Cl)cc2Cl)cc1` (stereo not given) [Sulconazole nitrate]: 93.7; for `O=C(c1ccc(Nc2nccc(-c3cc4ccccc4s3)n2)cc1)N1CCC(N2CCCC2)CC1`: 107.

As for `Nc1ncnc2c1ncn2[C@@H]1O[C@H](CO)[C@@H](O)[C@H]1O` [Adenosine (Adenocard)], the “mean cytoplasmic OPP incorporation” value is 97.3. Next, `O=C(/C=C/c1ccccc1)NC(NC(=S)Nc1cccc2cccnc12)C(Cl)(Cl)Cl` (stereo not given) [Salubrinal]: 108; `CC(=O)O[C@@]12CO[C@@H]1C[C@H](O)[C@@]1(C)C(=O)[C@H](O)C3=C(C)[C@@H](OC(=O)[C@H](O)[C@@H](NC(=O)OC(C)(C)C)c4ccccc4)C[C@@](O)([C@@H](OC(=O)c4ccccc4)[C@H]21)C3(C)C` [Docetaxel (Taxotere)]: 92.7; `CC(=O)O[C@@]12CO[C@@H]1C[C@H](O)[C@@]1(C)C(=O)[C@H](O)C3=C(C)[C@@H](OC(=O)[C@H](O)[C@@H](NC(=O)OC(C)(C)C)c4ccccc4)C[C@@](O)([C@@H](OC(=O)c4ccccc4)[C@H]21)C3(C)C` [Docetaxel]: 81.3.

On to `Nc1ccn([C@@H]2O[C@H](CO)[C@@H](O)C2(F)F)c(=O)n1` [Gemcitabine], for which the “mean cytoplasmic OPP incorporation” value is 71.7. The same measure for `Nc1ccn([C@@H]2O[C@H](CO)[C@@H](O)C2(F)F)c(=O)n1` [Gemcitabine HCl (Gemzar)]: 72.9.

As for `O=C(NCCCN1CCC2(CC1)OCc1ccccc12)[C@H]1CCCN1Cc1ccccc1`, the “mean cytoplasmic OPP incorporation” value is 108. For `COc1ccccc1N1CCN(CCN(C(=O)C2CCCCC2)c2ccccn2)CC1`, the “mean cytoplasmic OPP incorporation” value was 118. The same measure for `CN1C(=O)CC(c2ccccc2)C1=O` (stereo not given) [Phensuximide]: 105; for `CN(C)CCN(Cc1ccccc1)c1ccccn1` [Tripelennamine hydrochloride]: 99.5. The same measure for `CC1CNc2c(cccc2S(=O)(=O)N[C@@H](CCCNC(=N)N)C(=O)N2CC[C@@H](C)C[C@@H]2C(=O)O)C1` (stereo not given in full) [Argatroban]: 100 ± 6.7; for `CO[C@H]1C[C@@H]2CC[C@@H](C)[C@@](O)(O2)C(=O)C(=O)N2CCCC[C@H]2C(=O)O[C@H]([C@H](C)C[C@@H]2CC[C@@H](OCCO)[C@H](OC)C2)CC(=O)[C@H](C)/C=C(\C)[C@@H](O)[C@@H](OC)C(=O)[C@H](C)C[C@H](C)/C=C/C=C/C=C/1C` [Everolimus (RAD001)]: 94.16 ± 0.21. The same measure for `Fc1ccc(Cl)cc1-c1nc(Nc2ccncc2)c2nccnc2n1`: 99.7. Take `O=C(O)c1ccc(-c2ccc3cc(O)c(C45CC6CC(CC(C6)C4)C5)cc3c2)cc1`: the “mean cytoplasmic OPP incorporation” value was 98.8. Next, `Cc1c(C2CCN(CCc3ccccc3)CC2)noc1-c1ccc(Cl)cc1` [L-741,742 hydrochloride]: 123; `CC(C)c1ccc(NC(=O)Cn2cnc3c2c(=O)n(C)c(=O)n3C)cc1`: 102. Next, `C[C@H](NC(=O)/C(C#N)=C/c1cccc(Br)n1)c1ccccc1`: 56.2 ± 5.9.

On to `CCCN(CCC)S(=O)(=O)c1ccc(C(=O)O)cc1` [Probenecid], for which the “mean cytoplasmic OPP incorporation” value came out at 98.7.

Consider `CCNC(=O)Nc1ccc(-c2nc3c(c(N4CCOC[C@@H]4C)n2)CCN(C2COC2)C3)cc1`, for which the “mean cytoplasmic OPP incorporation” value was determined as 63.5 ± 2.8. In the case of `C[C@]12CC[C@@H]3c4ccc(O)cc4CC[C@H]3[C@@H]1CC[C@@H]2O` [Estradiol], the “mean cytoplasmic OPP incorporation” value was determined as 100. The same measure for `C[C@]12CC[C@@H]3c4ccc(O)cc4CC[C@H]3[C@@H]1CC[C@@H]2O` [Estradiol-17 beta]: 101; for `C[C@]12CC[C@@H]3c4ccc(O)cc4CC[C@H]3[C@@H]1CC[C@@H]2O` [17b-Estradiol]: 95.7. The same measure for `Cc1c(NC(=O)N2CCOCC2)ccc2c1c1ccccc1n2C(C)C`: 101; for `NC(Cc1cc(I)c(Oc2cc(I)c(O)c(I)c2)c(I)c1)C(=O)O` (stereo not given) [Thyroxine (L)]: 106. For the molecule `OC(CN1CCC(Cc2ccc(F)cc2)CC1)c1ccc(Cl)cc1` (stereo not given) [Eliprodil], the “mean cytoplasmic OPP incorporation” value amounted to 97.1.

Regarding `CN(C)CC/C=C1/c2ccccc2Sc2ccc(Cl)cc21` [Chlorprothixene hydrochloride], the “mean cytoplasmic OPP incorporation” value is 110.

With `CCCS(=O)(=O)c1nc(NC2CC2)cc(-c2ccc3c(ccn3C3CC(C)(C)NC(C)(C)C3)c2)n1`, the “mean cytoplasmic OPP incorporation” value came out at 21.1.

As to `CC(=O)[C@H]1CC[C@H]2[C@@H]3CCC4=CC(=O)CC[C@]4(C)[C@H]3CC[C@]12C` [Progesterone (Prometrium)], the “mean cytoplasmic OPP incorporation” value amounted to 106. Next, `CC(=O)[C@H]1CC[C@H]2[C@@H]3CCC4=CC(=O)CC[C@]4(C)[C@H]3CC[C@]12C` [Progesterone]: 95.1 ± 0.97; `Cn1cc(CNCC2CCN(c3ncc(C(=O)NO)cn3)CC2)c2ccccc21`: 59.7; `CCOC(=O)CCNc1cc(N2CCc3ccccc3CC2)nc(-c2ccccn2)n1`: 95.7 and 90.7. The same measure for `COc1ccc2[nH]c([S+]([O-])Cc3ncc(C)c(OC)c3C)nc2n1` (stereo not given) [Tenatoprazole]: 109; for `CN(C)CCOC(c1ccccc1)c1ccccc1` [Diphenhydramine hydrochloride]: 106. The same measure for `N#Cc1ccc(C2CCCc3cncn32)cc1` (stereo not given) [Fadrozole hydrochloride]: 99; for `COC(=O)C1=CO[C@@H](O[C@@H]2O[C@H](CO)[C@@H](O)[C@H](O)[C@H]2O)[C@@H]2C(CO)=CC[C@H]12` [Geniposide]: 102; for `Cc1onc(-c2ccccc2Cl)c1C(=O)N[C@@H]1C(=O)N2[C@@H]1SC(C)(C)[C@@H]2C(=O)O` [Cloxacillin sodium (Cloxacap)]: 102. Regarding `Cc1onc(-c2ccccc2Cl)c1C(=O)N[C@@H]1C(=O)N2[C@@H]1SC(C)(C)[C@@H]2C(=O)O` [Cloxacillin sodium salt], the “mean cytoplasmic OPP incorporation” value is 89.9. The same measure for `N[C@@H](C(=O)N[C@@H]1C(=O)N2C(C(=O)O)=C(Cl)CC[C@H]12)c1ccccc1` [Loracarbef]: 97.4. Next, `COc1ccc(Cn2ccc3ccc(C(=O)NO)cc32)cc1`: 123; `C#Cc1cccc(Nc2ncnc3cc(OCCOC)c(OCCOC)cc23)c1` [Erlotinib]: 91.9. The same measure for `NC(=O)c1cnc(N[C@@H]2CCCC[C@@H]2N)nc1Nc1cccc(-n2nccn2)c1`: 77.5 ± 3.4; for `NS(=O)(=O)c1cc2c(cc1Cl)NC(C(Cl)Cl)NS2(=O)=O` (stereo not given) [Trichlormethiazide]: 92.1; for `CN[C@@H]1[C@H](O)[C@H](NC)[C@H]2O[C@@]3(O)C(=O)C[C@@H](C)O[C@H]3O[C@@H]2[C@H]1O` [Spectinomycin dihydrochloride]: 94.4.

Regarding `CCCCCCOC(=O)NC(=N)c1ccc(NCc2nc3cc(C(=O)N(CCC(=O)OCC)c4ccccn4)ccc3n2C)cc1` [BIBR-1048 (Dabigatran etexilate, Pradaxa)], the “mean cytoplasmic OPP incorporation” value is 109. Next, `CC(C)C[C@@H](C(=O)N[C@H](C(=O)OC1CCCC1)c1ccccc1)[C@H](O)C(=O)NO`: 97.6.

For the molecule `CC(C)C[C@@H](C(=O)N[C@H](C(=O)OC1CCCC1)c1ccccc1)[C@H](O)C(=O)NO` [Tosedostat (CHR2797)], the “mean cytoplasmic OPP incorporation” value stood at 103. Next, `COc1ccc(O)cc1` [Mequinol]: 101; `CCCCCCCCCCCCCCCCCCCCCCO` [Docosanol (Abreva)]: 104; `O=[N+]([O-])c1ccc(Oc2ccc(Br)cc2)c(C(O)P(=O)(O)O)c1` (stereo not given): 95.9. Next, `Cc1c(-c2ccccc2)oc2c(C(=O)OCCN3CCCCC3)cccc2c1=O` [Flavoxate hydrochloride]: 94.6; `CN[C@@H]1[C@@H](O[C@H]2O[C@H](CO)[C@@H](N)[C@H](O)[C@H]2O)OC2C[C@@H](N)[C@@H](O[C@H]3[C@H](O)[C@@H](O)[C@H](N)C[C@@H]3N)OC2[C@@H]1O` (stereo not given in full) [Apramycin]: 105. The same measure for `CCN(CC)CCOC(=O)c1cc(Cl)c(N)cc1OC` [SDZ 205-557 hydrochloride]: 98.4; for `C=C1/C(=C\C=C2/CCC[C@]3(C)[C@@H]([C@H](C)CCCC(C)C)CC[C@@H]23)C[C@@H](O)C[C@@H]1O` [Alfacalcidol]: 93.9; for `Cc1ccc2c(c1)c1c3n2CCNC3CCC1` (stereo not given) [Pirlindole mesylate]: 108 ± 3.8. Consider `CC(=O)N[C@@H](Cc1c[nH]c2ccccc12)C(=O)OCc1cc(C(F)(F)F)cc(C(F)(F)F)c1`, for which the “mean cytoplasmic OPP incorporation” value came to 100. Next, `CCC[C@@H]1C[C@@H](C(=O)N[C@@H]([C@H]2O[C@H](SC)[C@H](O)[C@@H](O)[C@H]2O)[C@H](C)Cl)N(C)C1` [Clindamycin HCl (Dalacin)]: 105; `CCC[C@@H]1C[C@@H](C(=O)N[C@@H]([C@H]2O[C@H](SC)[C@H](O)[C@@H](O)[C@H]2O)[C@H](C)Cl)N(C)C1` [Clindamycin hydrochloride]: 104; `CO[C@H]1/C=C\C=C(/C)C(=O)NC2=CC(=O)C(NCCN(C)C)=C(C[C@@H](C)C[C@H](OC)[C@H](O)[C@@H](C)/C=C(\C)[C@@H]1OC(N)=O)C2=O` [17-DMAG HCl (Alvespimycin)]: 73.7.

Take `O=C(N[C@H](CO)[C@H](O)c1ccc([N+](=O)[O-])cc1)C(Cl)Cl` [Chloramphenicol]: the “mean cytoplasmic OPP incorporation” value turned out to be 101. As for `Cn1cnc2c1c(=O)[nH]c(=O)n2C` [Theobromine], the “mean cytoplasmic OPP incorporation” value was 105. The same measure for `CC1=NN(c2ccccc2)C(=O)C1`: 99.9 ± 2.1.
